The source gives no read counts; variants with many changes may rest on few reads.

The chains are these.
B1: LINE1-mini (parent)
chain: GGCAGAGCUCAACACAGCGUGGCAAAGUGGCUGUGGCUAGACUGCC

In the data set the parent is B1. Description: self-cleavage, relative activity (ratio to wild type); higher = more cleavage; in vitro, sequencing; the parent is a self-cleaving ribozyme.
Turning to G7A C10G C23U, the self-cleavage came to 0.03. On to G7A A14G G40U, for which the self-cleavage worked out at 0.16. In the case of A6U G27U G29C it was 0.25. As to A6U G19A G40A, the self-cleavage amounted to 0.08. In the case of G7A A24U G29A it was 0.05; in that of A6U U9C A12C U32A C37U, 0.02; in that of A6U G19U G27C C42U C46A, 0.28. In the case of A6U G17U C46G it was 0.05; in that of G7A A24C A25G G33A U43A G44U, 0.08; in that of A6U G7C C18A, 0.08. In the case of G7A A16G G21U it was 0.16; in that of G7A A24C U38G C46A, 0.06. In the case of G7A A14G G36U, the self-cleavage came to 0.21. In the case of G7A A16G G27C it was 0.09. In the case of G7A C13A G27U A39C it was 0.52. Regarding G7A C13A G35U, the self-cleavage is 0.44. With A6U G7U G40C G44U the figure was 0.19; with A6U G27U C37A, 0.13. With G7A A14C A26U the figure was 0.14; with G7A A24G A25C G27U G40A, 0.06; with A6U G22C G36U C45A C46U, 0.73. With G7A C8A G21A the figure was 1.05. In the case of G7A A16C C37G, the self-cleavage came out at 0.09.

As to G7A A16G C31A G33A, the self-cleavage is 0. Take A6U G19C G35U: the self-cleavage was determined as 0.63. With A6U U20A G27A A39U the figure was 0.58; with G7A A24G U32C A41G, 0.13.

Take A6U U20C A24C U34A U38C: the self-cleavage worked out at 0.02. In the case of A6U U9A C10A G36C it was 0.03; in that of A6U G17U U20G C31U U38A, 0.03; in that of A6U G21U A24U A26U, 1.29.

Consider G7A C13U G36C G40C, for which the self-cleavage was 0.24. Regarding G7A C10A C13U G17U A26C G35A, the self-cleavage was 0.02. With G7A C8U G17C G19C G27C U32A C42A the figure was 0.05; with A6U U9G A14C, 0.33; with G7A C13U A39C C46A, 0.41.

For the variant G7A A11C A25C G33C A39U, the self-cleavage worked out at 0.01. In the case of A6U G22U C37A U38C it was 0.05; in that of A6U G7U A26C, 0.04; in that of A6U G7U A26C U28A C37U A39U, 0.01. With G7A A14G C23U A25C C46A, the self-cleavage was 0.09. In the case of A6U G22C U32G A39U it was 0.05; in that of G7A A26G U32A G36A, 0.01.

For the variant G7A A25C C46A, the self-cleavage was found to be 0.03.

On to A6U U32A G40U, for which the self-cleavage is 0.16. For the variant G7A C10A U38A, the self-cleavage worked out at 0.04. With A6U U34G G40C, the self-cleavage came to 0.03.

For the variant G7A A26G G29U G33A G35U, the self-cleavage turned out to be 0.31. For the variant G7A A11G A14C U32A U34A G36A C37U, the self-cleavage was found to be 0. In the case of G7A A25G G27A A41G it was 0.14. In the case of A6U G30A C37A it was 0.16; in that of G7A A14U U20A C23U C42A, 0.11. As to G7A C8A G19C U28A U43G, the self-cleavage was 0.01. In the case of A6U U32A C42A it was 0.01; in that of G7A A16U G33C, 0.04. As for G7A C10A G22A, the self-cleavage came out at 0.03. In the case of A6U U20G C23G C45A it was 0.64; in that of A6U G7C A12G, 0.11. In the case of A6U G19A G21C A25G G36U C42A it was 0.02; in that of G7A C10U G36C, 0.05; in that of G7A C10U A11U, 0.03. On to A6U G17A C23U, for which the self-cleavage was determined as 0.32. With G7A C8G A41U the figure was 0.2; with G7A C13A G21A G22A G29A G30C C45G, 0.28; with G7A A12C C15G U38A C42U, 0.04. In the case of A6U G21U C37G it was 0; in that of G7A A12U U32G A41G, 0.08; in that of A6U U20G G27A, 0.26. In the case of G7A C8A G44A it was 0.5; in that of G7A C13G U43C, 0.34; in that of G7A A11C G17A C18A U20G, 0.01. Take A6U G7C C15A G27A: the self-cleavage was determined as 0.09. As to A6U U20G A41G C42A, the self-cleavage turned out to be 0.01. In the case of G7A C10U A11U A16G it was 0.01; in that of G7A C10A G30C C37A U38A A39C, 0.01.

With G7A A11C G21U A25U, the self-cleavage is 0.04.

As to G7A A12C C31U C45U, the self-cleavage came to 0.01. With G7A C13G G33C U43C the figure was 0.06; with G7A A14U C18G G33A, 0.09.

On to A6U G7C A16U U20A, for which the self-cleavage came out at 0.06. In the case of G7A C10G C37A C42U G44C it was 0.03; in that of A6U G7U C45A, 0.43; in that of A6U G22C G36C, 0.3. In the case of G7A C10A U20C C23U it was 0.03; in that of G7A A14G G35A, 0.45. In the case of A6U G7A G29A it was 0.08. Take G7A A11U U32G: the self-cleavage was 0.05.

As for G7A C8A C31U, the self-cleavage turned out to be 1.23. With A6U G27U G40U C42A the figure was 0.03; with G7A C10A C13U, 0.03; with G7A A14U G21U, 0.13.

With A6U G29C G30U, the self-cleavage came to 0.17. With A6U C31A G36U the figure was 0.01.

In the case of G7A C8A C13U G21A G30U C37U, the self-cleavage worked out at 0.18.

With A6U U32A C37A, the self-cleavage was 0.02. With A6U G29U G40U C46A the figure was 0.09; with A6U G19C A39C, 0.1; with G7A C8U C10A A12U G22U, 0.02.

For the variant G7A C10A C46A, the self-cleavage amounted to 0.02. Turning to G7A A12U C15A G19A, the self-cleavage was 0.31.

On to A6U G22C C31A, for which the self-cleavage stood at 0.14. In the case of G7A A12G U34G G44A, the self-cleavage stood at 0.06. With G7A A16C G19C G30C U38C the figure was 0.29; with A6U G17A C18U, 0.38; with G7A C10U U20G G21U A24C G36U, 0.02. In the case of G7A A12U G36U it was 0.12; in that of G7A A16C U28A C46A, 0.11. With G7A A25C U32G the figure was 0.06; with G7A A12C G27A G33U U38C, 0.03; with G7A A12C G17A U20A U28C U32G, 0.03. As to G7A C10U G33C, the self-cleavage came out at 0.03. Regarding G7A C10U G21C, the self-cleavage worked out at 0.03. In the case of A6U U9A C18U G21A U28G it was 0.55.

For the variant A6U G17C C31A, the self-cleavage was 0.37.

Turning to G7A A11G C18U G35A, the self-cleavage was found to be 0.03. In the case of G7A A16G G17A it was 0.29; in that of G7A A14U G33U, 0.03; in that of A6U G7U A11C, 0. As for G7A C8U U9G A12G C31A G36U, the self-cleavage is 0.21.

Regarding A6U G7U C8A A39U, the self-cleavage was 0.04. With G7A C13G G17U C46U, the self-cleavage was 0.1. In the case of G7A C13A C15A G29U C31A it was 0.4; in that of G7A C10G C15A G19U U20G, 0; in that of A6U G21U C46G, 0.77.

With G7A A12C C37U, the self-cleavage is 0.01. In the case of A6U G44U C46G it was 0.33; in that of G7A A26G G30U, 0.23; in that of A6U G36A U43A, 0. In the case of A6U G19U G35U it was 0.03; in that of A6U G7C C23U G27U G40C, 0.15; in that of A6U G17U G29C, 1.22. With G7A A11U G44C the figure was 0. For A6U G22U U28C A41C, the self-cleavage is 0.

Take A6U G17U G35A C37U: the self-cleavage came to 0.11.

Consider A6U G27A C46U, for which the self-cleavage amounted to 0.42. In the case of A6U U9A C13A it was 1.53; in that of G7A C10G G22U G29U G35A U43C, 0.02; in that of G7A C10A A26C G33A G35A, 0.02. With G7A A16C C42A C46U the figure was 0.45; with A6U G19A G36A, 0.36. In the case of G7A A24U A25C U32G U38A it was 0.03; in that of A6U G17A G35C G44A, 0.05; in that of A6U U9A G27A, 0.27. Consider A6U G19A G30C U34A G44C, for which the self-cleavage came out at 0.1. Regarding G7A C13G G36A, the self-cleavage was 0.38.

G7A C8U U28C G29A G44A: the self-cleavage amounted to 0.22. As to G7A A16C G36U, the self-cleavage amounted to 0.02. In the case of A6U G7C A25C it was 0.1. In the case of A6U G21A G27U it was 0.4. In the case of A6U G22C A26C G27C C37G, the self-cleavage was 0.02. With A6U U20C G36A the figure was 0.05; with G7A A11C G40A, 0.06; with G7A C10A G19C, 0.02. In the case of G7A A12C A25C A41U it was 0. In the case of G7A C8A A24U A25C G33U it was 0.14. For the variant G7A A16G U34A, the self-cleavage came out at 0.01. In the case of A6U G21C C46A it was 0.59; in that of G7A C8G G21A A26U A41G C45A, 0.11.

G7A C10A A26U: the self-cleavage turned out to be 0.09. In the case of G7A C10U G21A A26C it was 0.02; in that of A6U G17A C18A G30C, 1.14; in that of A6U G33A A41C, 0.06. With G7A C8G U34A the figure was 0.08; with A6U G7U G19A, 0.06; with A6U G7C A41U, 0.21. In the case of G7A C8U A11C G27U it was 0; in that of G7A C10A A12C C46A, 0.03.

The values are drawn from the RNAGym collection of RNA variant scans (doi:10.7554/elife.90254).
